# Test results from PubChem BioAssay AID1508642 (National Center for Advancing Translational Sciences (NCATS), 2021).
# The campaign covered roughly 43,000 compounds. About 200 (0.47%) were called active. About 12% were inconclusive and are not listed. Calls come from the whole dose curve; as a rule, active = well fitted cell-killing curve with a large enough effect; inconclusive = small, poorly fitted or top-dose-only effect, or effect the other way; inactive = flat fitted curve, though single readings scatter. The list shows a part of the results.
# Experiment: Cell viability qHTS assay in S16 Pmp22-F2sN cells; note: nearly all actives have a fitted effect of over 65% in size
# Conditions: S16 Pmp22-F2sN Schwann cells viability, CellTiter-Glo, 24 h; series mostly up to 57.5 µM; activity change, negative = cytotoxicity: at the top concentration
# Method in brief: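 S16 Pmp22-F2sN Schwann cells (500-1,000/well) in phenol-red-free DMEM with 10% FBS received 23 nL compound by pin tool for 24 h at 37 °C. Viability was then read as CellTiter-Glo luminescence after 15 min at room temperature.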
# % is set by controls: 0 for no effect and ±100 for the full control effect.
row,SMILES,"activity change, negative = cytotoxicity"
1,CCOC(=O)c1cc(-c2ccc(OC)cc2)n(CCC(=O)NCCc2ccccc2)c1C,inactive: -3.25%
2,Cc1ccccc1N(C)S(=O)(=O)c1nnc(NC(=O)c2ccco2)s1,inactive: -0.492%
3,COc1cccc(C(=O)NCCc2csc3nc(-c4ccccc4F)nn23)c1OC,inactive: 1.46%
4,Cc1ccc(NC(=O)C2(C)Cc3ccccc3C(=O)O2)c(C)c1 (configuration not stated),inactive: 0.276%
5,CCn1nc(C)c(CCN(C)C(=O)Nc2cccc(Cl)c2C)c1C,inactive: 8.63%
6,Cc1cccc(C(=O)N2CCc3cc(CNC(=O)c4cc5ccccc5[nH]4)ccc32)c1,inactive: -4.21%
7,Cc1ccc(CNC(=O)C(C)n2c(=O)cc(C(F)(F)F)c3c(C)nn(C)c32)cc1 (configuration not stated),inactive: -20.3%
8,Cc1ccc(S(=O)(=O)C(CNC(=O)c2c(F)cccc2F)c2ccco2)cc1 (configuration not stated),inactive: 3.42%
9,Cc1cc(C)c(S(=O)(=O)NCCS(=O)(=O)N2CCN(c3ccccc3)CC2)c(C)c1,inactive: -0.684%
10,O=S(=O)(c1ccccc1)c1nc(-c2ccccc2Cl)oc1N1CCCCCC1,inactive: 7.55%
11,Cc1nc2ccccn2c(=O)c1NC(=O)c1cccc(F)c1,inactive: 1%
12,COc1cccc(Nc2nc3cc(C)ccc3nc2NS(=O)(=O)c2ccc(Cl)cc2)c1,inactive: -12.3%
13,COC(=O)c1ccccc1NC(=O)Cn1cnc2sc(C)c(S(=O)(=O)N3CCC(C)CC3)c2c1=O,inactive: -7.99%
14,CCOC(=O)c1cccc(NC(=O)c2ncoc2-c2ccco2)c1,inactive: 6.29%
15,Cc1cccc(-n2ccnc2SCC(=O)Nc2cccc3ccccc23)c1,inactive: -3.09%
16,N#Cc1c[nH]n2c(NC3CCCCC3)c(-c3ccc(F)cc3)nc12,inactive: -18.4%
17,Oc1ccccc1-c1nc(-c2cccs2)c(-c2cccs2)[nH]1,inactive: -5.18%
18,O=C(COc1ccccc1Cl)Nc1ccc(OCc2cc(=O)n3ccsc3n2)cc1,inactive: 4.06%
19,Cc1cc(C)cc(OCCSc2nc3ccc(NC(=O)c4ccc5c(c4)OCO5)cc3s2)c1,inactive: 13.7%
20,CCc1ccc2[nH]cc(S(=O)(=O)c3ccc(C(C)C)cc3)c(=O)c2c1,inactive: 0.425%
21,CCOC(=O)c1c(NC(=O)c2cc(-c3ccccc3OC)on2)sc(C)c1C,inactive: 0.197%

row,SMILES,"activity change, negative = cytotoxicity"
1,COc1ccc(NC(=O)CCc2c(C)nc3c(c2C)c(=O)n(C)c(=O)n3C)c(OC)c1,inactive: 11.7%
2,CCc1ccccc1NC(=O)Cn1nc2c3cc(F)ccc3n(Cc3cccc(C)c3)cc-2c1=O,inactive: 8.75%
3,O=C(COc1ccccc1F)Nc1ccc2nc(SCC(=O)N3CCc4ccccc43)sc2c1,inactive: 1.74%
4,COc1ccccc1CNC(=O)C1(c2cccs2)CCOCC1,inactive: 28.3%
5,COc1ccc(-c2nc3nc(C)cc(C)n3c2Nc2c(C)cccc2C)cc1,inactive: 0.904%
6,Cc1cc(NC(=O)C2CCN(S(=O)(=O)c3c(C)noc3C)CC2)ccc1Br,inactive: -0.617%
7,Cc1cc(C)c2nc(N(Cc3cccnc3)C(=O)CCS(=O)(=O)c3ccccc3)sc2c1,inactive: -1.36%
8,CC1=C(C(=O)Nc2cccnc2)C(c2ccc(F)cc2)n2nc(-c3cccc(C)c3)nc2N1 (configuration not stated),inactive: -0.147%
9,CCN(C(=O)Cn1c(C(=O)OC)cc2sc(Cl)cc21)c1cccc(C)c1,inactive: 2.48%
10,COc1ccc([N+](=O)[O-])cc1NC(c1nnc(-c2ccccc2)o1)c1ccccc1F (configuration not stated),inactive: 1.5%
11,CNC(=O)C1CCC(Cn2c(=O)c3sccc3n(Cc3cc(C)ccc3C)c2=O)CC1 (configuration not stated),inactive: 3.65%
12,COc1ccc(N2C(=O)NC(NS(=O)(=O)c3ccc(Cl)cc3)(C(F)(F)F)C2=O)cc1 (configuration not stated),inactive: 8.15%
13,COc1ccc(C2C(=O)N(C3CCCCC3)CC(=O)N2CCc2ccc(C)cc2)cc1OC (configuration not stated),inactive: 0.883%
14,COCCNC(=O)CCCn1c(SCC(=O)Nc2ccc(F)cc2)nc2c(sc3ccccc32)c1=O,inactive: -17.4%
15,COc1ccc(C(=O)n2nc(N)c3cc4ccc(C)cc4nc32)cc1OC,inactive: 1.27%
16,CCOC(=O)Cn1c(=N)n(Cc2ccc(C(C)(C)C)cc2)c2ccccc21,inactive: 1.06%
17,COC(=O)c1cc2oc(C)cc2n1Cc1ccccc1Cl,inactive: -17.4%
18,Cc1cc2nc(-c3ccc(OCc4ccccc4C)cc3)cc(C(F)(F)F)n2n1,inactive: -1.76%
19,Cc1cc(C)cc(-n2ccnc2SCC(=O)Nc2cccc3ccccc23)c1,inactive: -14.4%
20,COc1ccccc1C1NC(=O)c2n[nH]c(-c3cccs3)c21 (configuration not stated),inactive: -5.98%
21,CC1CCN(C(=O)c2c(NC(=O)c3ccccc3Cl)sc3c2CCC(C(C)(C)C)C3)CC1 (configuration not stated),inactive: -1.94%

row,SMILES,"activity change, negative = cytotoxicity"
1,Cc1ccccc1NC(=O)Cn1c(=O)n(CCCC(=O)NCc2ccc3c(c2)OCO3)c(=O)c2ccccc21,inactive: 1.86%
2,CCOc1ccc(CC(=O)Nc2cccc(-c3nc4cccnc4s3)c2C)cc1,inactive: 0.875%
3,COc1ccc2[nH]cc(CCN=C(NC(=O)c3ccccc3F)Nc3nc(C)cc(C)n3)c2c1,inactive: 25.7%
4,O=c1cc(-c2ccccc2)c2ccc3c(c2o1)CN(Cc1cccc(Cl)c1)CO3,inactive: 1.26%
5,COc1cccc(NCc2cccn2-c2nnc(N3CCC(C)CC3)s2)c1,inactive: -11.1%
6,CCC(C)NC(=O)CN1C(=O)c2cccnc2Sc2ccccc21 (configuration not stated),inactive: 2.8%
7,COc1ccc(Cl)cc1NC(=O)c1c(NCc2ccc(C)o2)sc2c1CCC(C)C2 (configuration not stated),inactive: -15.1%
8,Cc1ccc(-c2cn3cccnc3n2)cc1NC(=O)C(C)(C)Oc1ccc(Cl)cc1,inactive: -12.1%
9,C=C(C)CSc1nc2sc3c(c2c(=O)n1Cc1ccccc1)CC(C)(CC)OC3 (configuration not stated),inactive: 0.838%
10,Cc1c(C(=O)Nc2ccccc2Br)oc2ccc(S(=O)(=O)N3CCCCCC3)cc12,inactive: -22.2%
11,Cc1ccc2oc3c(c(=O)c2c1)C(c1ccc(O)cc1)N(CCCN(C)C)C3=O (configuration not stated),inactive: 18.2%
12,Cc1ccc(-n2c(=O)c3cccnc3n2CC(=O)NCc2ccc(Cl)cc2)cc1,inactive: 4.96%
13,COC(=O)c1ccc([C@@H]2Nc3c(OC)ccc(C)c3[C@@H]3C=CC[C@@H]32)cc1,inactive: -5.44%
14,Nc1c(C(=O)Nc2ccc(F)cc2)sc2nc(-c3cccs3)cc(C(F)(F)F)c12,inactive: -0.97%
15,Cc1cc(F)ccc1NC(=O)C(c1ccccc1)N1Cc2ccccc2C1=O (configuration not stated),inactive: -19.1%
16,COc1ccc(C(=O)Nc2cccc(C(=O)OCc3cc(=O)n4nc(C5CC5)sc4n3)c2)cc1,inactive: -28.4%
17,Cc1cccc(Nc2ncnc3onc(-c4ccc(Cl)cc4)c23)c1C,inactive: -2.25%
18,O=C(CCS(=O)(=O)c1cc2c(cc1Cl)NC(=O)CO2)NCc1ccc(Cl)cc1,inactive: 14%
19,CC1N=C2c3ccccc3N=C(SCC(=O)NCCc3ccc(Cl)cc3)N2C1=O (configuration not stated),inactive: 3.03%
20,CCn1c2ccccc2c2cc(CN3CCN(Cc4ccc(Br)cc4)CC3)ccc21,inactive: -15.7%
